Assay results taken from PubChem BioAssay (NCATS).
Inconclusive results, whose numbers are uncertain, are shown with a selection of clear calls. For some assays here: Potencies of inconclusive entries are left out as doubtful fits. Activity calls are given as the source filed them. Unless noted, calls come from the whole dose curve; as a rule, active = well fitted curve in the direction sought with a large enough effect; inconclusive = small, poorly fitted or top-dose-only effect, or another doubt; inactive = no such curve, though single readings can be large; an effect the other way counts as inactive or inconclusive.

Legend:
[1] = Cell Viability - Jurkat (AID 426;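 active = dose-dependent loss of cell ATP signal giving a full or clear fitted curve, ranked by lower potency value; inconclusive = weak partial curve or response only at the top dose; inactive = no loss of viability signal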;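 note: potency is the fitted concentration of half-maximal effect; cells exposed to compound for 40 hours at 37 °C before ATP read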); details: qHTS
Method in brief: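 Seed 5000 Jurkat E6-1 cells/well; add compound; incubate 40 hr at 37 °C; add CellTiter-Glo; wait 20 min at room temperature; read luminescence. Fit concentration-response with Hill equation for AC50.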

[2] = Cell Viability - LYMP2-004 (AID 966); details: LYMP2-004 lymphoblastoid cell viability, qHTS; series mostly up to 92.2 µM;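 note: plate controls were DMSO only for no effect and tetraoctylammonium bromide control for full effect; nearly all actives have a fitted effect of over 65% in size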
Method in brief: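 Acute toxicity is scored as a concentration-dependent drop in intracellular ATP, quantified by luciferase luminescence, in human lymphoblastoid cells exposed to compound for 24 hr. AC50 derives from Hill-equation modelling.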

[3] = Cell Viability - LYMP2-005 (AID 967); details: LYMP2-005 lymphoblastoid cell viability; series mostly up to 92.2 µM;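 note: cells exposed to compound for 24 h at 37 °C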; note: potency is the fitted concentration of half-maximal effect
Method in brief: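 Acute cytotoxicity is scored as a concentration-dependent drop in intracellular ATP in human lymphoblastoid LYMP2-005 cells after 24 h compound treatment. ATP is quantified by luciferase luminescence, and AC50 is derived by Hill-equation modelling.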

[4] = qHTS assay for small molecule agonists of the antioxidant response element (ARE) signaling pathway (AID 651741; active = well fitted activation curve with a large enough effect in the signal ratio; inconclusive = small, poorly fitted or top-dose-only effect, or effect the other way, or a change in a side signal; the % refers to the signal ratio; note: % of control where 0% means no effect); details: HepG2 ARE-bla reporter, beta-lactamase FRET ratio, 16 h; activation: at 96 µM (top of the series) unless noted
Method in brief: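 HepG2 ARE-bla cells plated at 2,000 cells/well and incubated 5 h at 37 C/5% CO2 received 23 nL compound in DMSO. After 16 h at 37 C, LiveBLAzer B/G FRET substrate was applied for 2 h at room temperature and fluorescence read.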

[5] = qHTS assay to identify small molecules that stimulate interleukin-8 (IL-8) secretion (AID 651758; active = well fitted activation curve with a large enough effect in the signal ratio; inconclusive = small, poorly fitted or top-dose-only effect, or effect the other way, or a change in a side signal; the % refers to the signal ratio; note: potency is the fitted concentration of half-maximal effect; for activation: 0% is about no effect); details: HTRF ratio (665/615); activation: at 92.2 µM (top of the series)
Method in brief: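 THP-1 cells (2000/well) exposed to compound 16 h at 37 C; secreted IL-8 then detected by HTRF with cryptate- and XL665-labelled anti-IL-8 antibody pair after 1-3 h at room temperature.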

[6] = qHTS assay for small molecule antagonists of the retinoid-related orphan receptor gamma (ROR-gamma) signaling pathway - cell viability counter screen (AID 720652; active = well fitted curve in the direction sought with a large enough effect in the repeat runs; inconclusive = weak or mixed curves; inactive = no such curve, though single readings can be large; an effect the other way counts as inactive or inconclusive;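 note: CHO reporter cells with doxycycline-induced ROR-gamma expression; compound exposure lasted 16 hr before ATP read; % is set by controls: 0 for no effect and ±100 for the full control effect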); details: RORgamma reporter cell line viability counter screen; series mostly up to 92.2 µM
Method in brief: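 Cytotoxicity is quantified via intracellular ATP (CellTiter-Glo luminescence) in doxycycline-induced CHO ROR response element-luciferase reporter cells treated with compound for 16 hr at 37 C, 5% CO2.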

[7] = Cellular Toxicity (caspase-3) Jurkat (AID 655); details: Jurkat caspase-3 activation, luminescence; caspase-3 activation: at 92.2 µM (top of the series), DMSO = 0%, tamoxifen = 100%;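 note: cells exposed to compound for 16 h at 37 °C before reading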
Method in brief: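 5000 Jurkat cells/well; compound 16 hr, 37 °C; Caspase-Glo 3/7 added, 20 min RT; luminescence read. Norm: DMSO = 0%, tamoxifen 100 uM = 100%. AC50, Hill model.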

[8] = Cell Viability - LYMP2-023 (AID 975); details: LYMP2-023 lymphoblastoid cell viability; series mostly up to 92.2 µM;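 note: cellular ATP measured by luciferase luminescence as viability proxy; cells exposed to compound for 24 hours at 37 °C; plate controls were DMSO only for no effect and 92 µM tetraoctylammonium bromide control for full effect; nearly all actives have a fitted effect of over 55% in size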
Method in brief: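 Concentration-dependent drop in intracellular ATP measures acute cytotoxicity in a human lymphoblastoid line treated for 24 hours in complete culture medium. AC50 values are taken from Hill-equation fits of qHTS data.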

[9] = Cell Viability - LYMP2-026 (AID 989); details: LYMP2-026 lymphoblastoid cell viability, qHTS; series mostly up to 92.2 µM;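 note: cells exposed to compound for 24 h at 37 °C; % is set by controls: 0 for no effect and ±100 for the full control effect; nearly all actives have a fitted effect of over 50% in size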
Method in brief: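 Concentration-dependent loss of intracellular ATP in human lymphoblastoid cells after 24 hr at 37 C, quantified by luciferase luminescence. AC50 derived from standard Hill equation.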

[10] = target: Vitamin D3 receptor (Homo sapiens) (UniProt P11473); test: qHTS assay for small molecule agonists of vitamin D receptor signaling (AID 588543; calls by dose curve;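 note: 0% = DMSO basal and 100% = reference agonist control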); details: HEK293T VDR-UAS-bla, beta-lactamase ratio, 16 h; activation: at 76.8 µM (top of the series)
UniProt P11473, sequence (P11473 whole entry, looked up): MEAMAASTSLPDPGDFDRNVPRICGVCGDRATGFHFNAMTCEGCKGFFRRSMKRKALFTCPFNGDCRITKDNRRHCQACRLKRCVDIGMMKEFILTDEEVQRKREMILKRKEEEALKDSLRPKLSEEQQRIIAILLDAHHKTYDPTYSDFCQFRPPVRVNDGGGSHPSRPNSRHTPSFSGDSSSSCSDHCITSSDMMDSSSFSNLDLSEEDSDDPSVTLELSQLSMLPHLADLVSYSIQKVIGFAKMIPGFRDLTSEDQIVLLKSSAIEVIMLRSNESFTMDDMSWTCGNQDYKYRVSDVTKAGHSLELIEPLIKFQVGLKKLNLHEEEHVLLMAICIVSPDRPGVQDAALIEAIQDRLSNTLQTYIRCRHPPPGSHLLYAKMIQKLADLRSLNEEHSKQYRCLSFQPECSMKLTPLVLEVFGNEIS
Method in brief: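 Reporter cells (HEK293T, VDR-UAS-bla) were seeded in medium with 2% charcoal-stripped serum and incubated 5 h, then compounds in concentration series were added for 16 h at 37 °C. Stimulation was scaled between DMSO basal and 50 nM 1α,25-dihydroxyvitamin D3.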

[11] = target: Retinoic acid receptor RXR-alpha (Homo sapiens) (UniProt P19793); test: qHTS assay for small molecule agonists of retinoid X receptor alpha signaling (AID 588544; calls by dose curve;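 note: 0% = DMSO basal wells and 100% = reference agonist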); details: HEK293T RXRa-UAS-bla, beta-lactamase reporter, 18 h; activation: at 76.7 µM (top of the series) unless noted
UniProt P19793, sequence (P19793 whole entry, looked up): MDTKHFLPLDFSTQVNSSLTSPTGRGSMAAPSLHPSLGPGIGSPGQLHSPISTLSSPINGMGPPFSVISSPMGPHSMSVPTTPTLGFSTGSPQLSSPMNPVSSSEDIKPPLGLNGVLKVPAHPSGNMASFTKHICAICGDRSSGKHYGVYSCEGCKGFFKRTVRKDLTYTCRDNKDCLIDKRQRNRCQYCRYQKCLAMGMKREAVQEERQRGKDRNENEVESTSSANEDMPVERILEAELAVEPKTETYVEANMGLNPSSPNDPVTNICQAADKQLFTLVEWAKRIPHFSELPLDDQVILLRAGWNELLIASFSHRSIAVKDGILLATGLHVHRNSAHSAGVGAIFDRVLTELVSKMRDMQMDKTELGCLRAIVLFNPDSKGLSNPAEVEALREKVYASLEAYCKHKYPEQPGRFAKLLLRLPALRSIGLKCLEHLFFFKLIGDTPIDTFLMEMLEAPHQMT

[12] = qHTS assay for small molecule activators of the nuclear factor-kappa B (NF-kB) signaling pathway (AID 651749; active = well fitted activation curve with a large enough effect in the signal ratio; inconclusive = small, poorly fitted or top-dose-only effect, or a change in a side signal; the % refers to the signal ratio; note: potency is the fitted concentration of half-maximal effect); details: NF-kB-bla ME-180 cells, beta-lactamase FRET ratio, 16 h; activation: stronger effect = higher value
Method in brief: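 Incubation lasted 16 hr at 37C in 5% CO2 after 23 nL compound addition to ME-180 NF-kB-bla cells. Activation appears as beta-lactamase-mediated FRET loss.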

[13] = qHTS assay for small molecule agonists of the antioxidant response element (ARE) signaling pathway measured by Nrf2-dependant transcriptional activity (AID 720636; active = well fitted curve in the direction sought with a large enough effect in the repeat runs; inconclusive = weak or mixed curves; inactive = no such curve, though single readings can be large; an effect the other way counts as inactive or inconclusive; note: % of control where 0% means no effect); details: ARE-luc HepG2, Nrf2 luciferase reporter, 16 h; series mostly up to 92.4 µM
Method in brief: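 Quantitative HTS format in HepG2 cells stably expressing an ARE-luciferase reporter; 16 hr compound treatment at 37 C, luciferase signal detected with ONE-Glo.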
Tags give direction and shape of the fitted curve.

SMILES	Potency [1]	Potency [2]	Potency [3]	Potency [4]	Potency [5]	Potency [6]	Potency [7]	Potency [8]	Potency [9]	Potency [10]	Potency [11]	activation [4]	Potency [12]	Potency [13]
Clc1ccccn1	inactive: > 92 µM	inactive	inconclusive [rising, single point]	inactive	inconclusive [activator, partial curve, poor fit]	inactive	–	–	–	–	–	–	–	–
C=Cc1ccccn1	inactive: > 92 µM	–	inactive	–	inactive	–	inactive	inactive	inactive	inactive	inactive	inconclusive: -1.97%	inconclusive [activator, single point]	inactive
